# Measurements as given in PubChem BioAssay AID1347073 (National Center for Advancing Translational Sciences (NCATS), 2019).
# The campaign covered roughly 45,000 compounds. About 200 (0.44%) were called active. Another 7% or so got no clear call; they are omitted. Calls follow the shape of the dose curve; as a rule, active = well fitted activation curve with a large enough effect; inconclusive = small, poorly fitted or top-dose-only effect; inactive = no such curve, though single readings can be large or run the other way. The list shows a part of the results. Peptide text beside a SMILES is read from it. * marks the point of attachment. Boc = CC(C)(C)OC(=O)*
# Assay: qHTS of TDP-43 Inhibitors: NCGC Sytravon Library Screen; also: 0% is about no effect; nearly all actives have a fitted effect of over 55% in size
# Conditions: yeast TDP-43 toxicity rescue, BacTiter-Glo growth, 24 h; series mostly up to 46.1 µM; growth rescue (activation): at the top concentration
# Method in brief: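 TDP-43-expressing yeast, pregrown in raffinose, seeded at OD600 0.02 in galactose medium with compound for 24 hr at 30 deg C. Growth read by BacTiter-Glo luminescence, so rescue of toxicity appears as activation.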
row,SMILES,growth rescue (activation)
1,Cc1ccc(S(=O)(=O)NCC(=O)OC2CCOC2=O)cc1 (stereo not given),inactive: 10.9%
2,Cn1c(=O)n(C)c2cc(NS(=O)(=O)c3ccc(Br)s3)ccc21,inactive: 7.22%
3,O=C(O)/C=C/c1ccc(S(=O)(=O)Nc2ccccc2C(=O)Nc2ccc(F)cc2)cc1,inactive: -2.23%
4,CCc1nc2ccc(C(=O)NCCOc3ccc(OC)cc3)cn2c1N(C)Cc1nccn1C,inactive: 14.1%
5,CCN(CC)CCNC(=O)c1ccc(NC(=O)c2ccc(Cl)c(S(=O)(=O)N3CCCCCC3)c2)cc1,inactive: 19.9%
6,COc1cccc(NC(=O)c2ccc3c(c2)N(CC(=O)N2CCOCC2)C(=O)C(C)(C)O3)c1,inactive: 7.15%
7,Cc1ccsc1CN(C(=O)COc1ccccc1Cl)C1CCS(=O)(=O)C1 (stereo not given),inactive: 6.93%
8,O=C(COc1ccccc1)NC1CCS(=O)(=O)C1 (stereo not given),inactive: 0.428%
9,N#C/C(=C/c1ccc(-c2ccc(S(=O)(=O)N3CCOCC3)cc2)o1)C(=O)NC1CC1,inactive: 22%
10,Cc1cccc(OCC(=O)O/N=C(\N)c2ccncc2)c1,inactive: 31.3%
11,O=C(CCc1ccccc1)Nc1nc2n(n1)C(c1ccc(Cl)cc1)CC(=O)N2 (stereo not given),inactive: -17.5%
12,CCCCC1=NN(C(=O)c2ccco2)C(O)(C(F)(F)F)C1 (stereo not given),inactive: 20%
13,O=C(c1cccc(OC2CCN(Cc3ccc(F)cc3Cl)CC2)c1)N1CCCC1,inactive: -1.03%
14,C#CCN1C(=O)S/C(=C/c2cc(C)n(CC)c2C)C1=O,inactive: -14.9%
15,O=C(O)Cc1sc(Nc2ccc(Cl)cc2)nc1-c1cccs1,inactive: 17.7%
16,CCc1nc2c(OCC(=O)c3ccc(F)cc3)cccn2c1N(C)C(=O)COc1ccccc1,inactive: 7.19%
17,COc1ccc(OC)c(Nc2c3ccccc3nc3ccccc23)c1,inactive: -7.41%
18,Cc1ccc2c(c1)c(N=O)c(O)n2Cc1ccc(Cl)cc1,inactive: 3.94%
19,NS(=O)(=O)c1ccc(CCn2c(=S)[nH]c3ccccc3c2=O)cc1,inactive: 28.7%
20,O=C(Nc1cccc([N+](=O)[O-])c1)Nc1cccc([N+](=O)[O-])c1,inactive: -0.419%
21,Cc1c(Cl)cccc1NC(=O)CNc1ccccc1F,inactive: 22.3%
22,COc1ccc2c(C=O)cn(C)c2c1,inactive: 13.3%
23,CCOC(=O)/C(=N\Nc1ccccc1Cl)N1CC(C)OC(C)C1 (stereo not given),inactive: 27.5%
24,COc1ccc(CC(=O)N/N=C(/C)CC(=O)N(C)c2ccccc2)cc1,inactive: 8.57%
25,NS(=O)(=O)c1ccc(N=Cc2c(O)n(-c3nccs3)c(=O)c3ccccc23)cc1,inactive: 2.91%
26,CN(C(=O)C1CCN(S(=O)(=O)c2ccccc2[N+](=O)[O-])CC1)C1CCCCC1,inactive: -1.89%
27,CC[n+]1oc(-c2ccccc2)cc1C,inactive: 12.6%

row,SMILES,growth rescue (activation)
1,COc1ccc(/C=N/N=C2/NC(=O)C(CC(=O)O)S2)cc1OCc1ccc(Cl)cc1Cl (stereo not given),inactive: 15.4%
2,O=C(NCc1ccc2c(c1)OCO2)c1ccc(CS(=O)(=O)Cc2cccc(Cl)c2)o1,inactive: 20.1%
3,CC(C)(C)c1ccc(C(=O)NCCC(=O)N2CCCC2)cc1,inactive: 10.7%
4,CCC(CC)C(=O)N1CCN(Cc2nc3ccccc3c(=O)[nH]2)CC1,inactive: 8.93%
5,CN(C)c1nc(Oc2ccc(=O)[nH]n2)nc(N2CCOCC2)n1,inactive: 5.81%
6,CCN(CC)c1ccc(/C=N/NC(=O)c2ccc3nc[nH]c3c2)cc1,inactive: 17.4%
7,CCCC(CNC(=O)COC(=O)C1=NNC(=O)CC1)c1ccc(Cl)cc1Cl (stereo not given),inactive: 13.3%
8,CC(C)CN(C(=O)CN(C)CC(=O)Nc1ccc(Cl)c(C(F)(F)F)c1)c1c(N)n(CC(C)C)c(=O)[nH]c1=O,inactive: 4.67%
9,O=C1C(Cl)=C(NC2CCCCC2)C(=O)N1c1ccc(Cl)cc1,inactive: 11.1%
10,CC(C)n1c(NCc2ccc(Cl)cc2)nc2ccccc21,inactive: -10.9%
11,O=C(Cc1n[nH]c(=O)c2ccccc12)NCc1ccc(Cl)cc1,inactive: 19.8%
12,CCNC(=O)C1(C)CCCN(Cc2noc(-c3c(C)noc3C)n2)C1 (stereo not given),inactive: 7.77%
13,O=C(NNC(=O)c1cc(-c2ccco2)nc2ccccc12)c1ccccc1,inactive: -4.97%
14,O=C(Nc1ccc(N2CCCC2)cc1)C(c1ccccc1)c1ccccc1,inactive: 30.7%
15,Cc1ccc2cc(C#N)c(SCc3nnc(-c4ccccc4[N+](=O)[O-])o3)nc2c1,inactive: 7.19%
16,Cn1nnnc1NCc1cccc(Cl)c1Cl,inactive: -4.99%
17,CCOc1ccc(NC(=O)CCCCn2c(=O)[nH]c3ccsc3c2=O)cc1,inactive: 10.5%
18,CC(=O)NCCNC(=O)c1ccc(CSc2ccc(Cl)cc2)cc1,inactive: 3.93%
19,COc1ccc(C(=O)NCC(=O)OCc2ccc(Br)cc2)cc1,inactive: 4.81%
20,CC(C)(C)c1ccc(C(=O)N2CCC2(C)C(=O)NCCC#N)cc1 (stereo not given),inactive: 6.92%
21,Cc1cccc(NC(=S)N(CCc2ccncc2)C(C)C)c1C,inactive: -3.75%
22,COc1ccc(/C(O)=C2/C(=O)C(=O)N(CCCN(C)C)C2c2cccc(Cl)c2)cc1OC (stereo not given),inactive: 9.92%
23,COc1cc2c(cc1NC(=O)C(C)OC(=O)/C=C/c1ccc(OC(F)F)cc1)oc1ccccc12 (stereo not given),inactive: 5.95%
24,O=C(c1ccccc1)N1CN2CN(C(=O)c3ccccc3)CC([N+](=O)[O-])(C2)C1,inactive: 30.7%
25,CC(=O)c1ccc(N2CCN(C(=O)Nc3ccc(C)cc3)CC2)cc1,inactive: 2.48%
26,Cc1cc(NC(=O)COC(=O)CNS(=O)(=O)c2ccc(C)c(C)c2)no1,inactive: -5.93%
27,CC(NC(=O)COC(=O)c1ccc2ccccc2n1)c1ccccc1 (stereo not given),inactive: 20.4%

row,SMILES,growth rescue (activation)
1,O=C(COC(=O)Cc1ccsc1)Nc1ccc(S(=O)(=O)N2CCOCC2)cc1,inactive: -7.45%
2,COc1ccc(NC(=O)CSc2nnc(N)s2)cc1,inactive: 18.9%
3,CC(C)NC(=O)CC(=O)NN=C1CCCCC1,inactive: 8.8%
4,Fc1ccccc1COc1cccc2cccnc12,inactive: 12.3%
5,CCCCOc1cccc(C(=O)NC(=S)Nc2cccc(C(F)(F)F)c2)c1,inactive: -3.31%
6,O=C(CSc1ccc2c(c1)OCCO2)NCc1ccccc1,inactive: -1.66%
7,COc1ccc(CCN2CC(C(=O)NCc3nc(C)c(C)s3)CCC2=O)cc1 (stereo not given),inactive: -2.1%
8,O=C(COc1nsnc1N1CCOCC1)Nc1ccc([N+](=O)[O-])cc1,inactive: -8.99%
9,Cc1ccccc1NC(=O)Nc1nc(C2CCC(=O)N2)cs1 (stereo not given),inactive: 3.37%
10,CCCN(CCC)CCCNC(=O)c1cc2c(=O)[nH]c3ccccc3c2s1,inactive: -6.15%
11,CNC(=O)NC(=O)CN1C(=O)NC2(CCOc3ccccc32)C1=O (stereo not given),inactive: 1%
12,COc1cc(CN(C2CCCCC2)S(=O)(=O)c2ccc(S(=O)(=O)N(C)C3CCCCC3)cc2)cc(OC)c1OC,inactive: 11.5%
13,Cn1nc(C2CC2)cc1NC(=O)C1(C)CCN1C(=O)CCc1ccccc1 (stereo not given),inactive: 5.76%
14,CC1CCc2cc(F)ccc2N1C(=O)c1ccncc1 (stereo not given),inactive: 9.19%
15,Cc1cc(=O)n2[nH]c(CCC(=O)O)nc2n1,inactive: 27.6%
16,CCn1c(SCC(=O)N/N=C\c2ccccc2OCC(=O)O)nnc1-c1ccc(Cl)cc1,inactive: 11.1%
17,NS(=O)(=O)c1ccc(Cc2ncc(C(F)(F)F)cc2Cl)s1,inactive: 13.1%
18,O=Cc1c(C(=O)O)n(CC(=O)O)c2ccccc12,inactive: 17.9%
19,CSc1ccc(CN2CCN(C(=O)c3ccc([N+](=O)[O-])cc3)CC2)cc1,inactive: -5.92%
20,CCCCN(C)CCC(=O)Nc1ccc2c(c1)CCC2,inactive: -12.5%
21,C[C@]12C=CC(=O)C=C1CCC1C2CC[C@@]2(C)C1CCC21OCCO1 (stereo not given in full),inactive: 13%
22,CCc1cccc(C)c1Nc1c(-c2ccc(F)cc2)nc2sccn12,inactive: 25.3%
23,CCCCN(CC)CCNC(=S)Nc1ccc2nc(N3CCN(C)CC3)cc(C)c2c1,inactive: 2.58%
24,O=C(COc1ccc(F)cc1Br)NCC1(N2CCCCC2)CCCCC1,inactive: 2.92%
25,COc1ccc(/C=N/n2c(SC)nnc2-c2ccccc2)c(OC)c1OC,inactive: 26.8%
26,CCc1nc2ccc(C(=O)N(CC)CCN(C)C)cn2c1N(C=O)CCC(C)C,inactive: 9.65%
27,Cc1cccc(N(CC(=O)NCc2ccco2)C(=O)CCC(=O)Nc2ccccn2)c1C,inactive: -8.45%

row,SMILES,growth rescue (activation)
1,COc1ccc(C(=O)NN=C(Cc2ccccc2)Cc2ccccc2)cc1OC,inactive: 15.9%
2,CCCCCC(=O)NC(=S)NNC(=O)c1ccc([N+](=O)[O-])cc1,inactive: 13.1%
3,Cc1ccc(-n2c(C)cc(=O)cc2C)c(C)c1,inactive: 2.03%
4,COc1cc(NC(=S)NCCC(c2ccccc2)c2ccccc2)c(OC)cc1Cl,inactive: -1.23%
5,COc1ccc(Br)cc1CN(C)C(=O)C1CC(=O)N(C2CCCC2)C1 (stereo not given),inactive: 17.7%
6,Cc1cc(Cl)ccc1NC(=O)CN1CCN(C(=O)c2ccco2)CC1,inactive: 9.77%
7,CCOC(=O)c1sc(NC(=O)CSc2n[nH]c(C)n2)nc1C,inactive: 12.7%
8,O=C(COC(=O)c1cccnc1Cl)Nc1ccc(S(=O)(=O)N2CCOCC2)cc1,inactive: -8.72%
9,O=C(CCOc1ccccc1)Nc1cccc([N+](=O)[O-])c1,inactive: 0.839%
10,CCC(C)C(NC(=O)OC(C)(C)C)C(=O)NC(C(=O)NC(C)C(N)=O)C(C)C (stereo not drawn) (Boc-Ile-Val-Ala-NH2; configuration not given here),inactive: 16.5%
11,CC(OC(=O)c1ccco1)C(=O)NC1CCCC1 (stereo not given),inactive: 12.9%
12,Cc1cc(C)c(S(=O)(=O)c2ccccc2C)c(OCCO)n1,inactive: 11.4%
13,COc1ccc(C(C(=O)NC2CCCCC2)N(CC2CCCO2)C(=O)CCCC(=O)Nc2ccccn2)cc1 (stereo not given),inactive: 2.86%
14,Cc1ccc(NC(=O)CN2C(=O)C(c3ccccc3)=NC23CCCCC3)cc1C,inactive: 20.1%
15,Cc1cc(C)cc(Cn2c3ccc(NC(=O)NCCc4cccs4)cc3c(=O)n2C)c1,inactive: 10.6%
16,COc1cc([N+](=O)[O-])ccc1NC(=S)Nc1cc(C(=O)OC(C)C)cc(C(=O)OC(C)C)c1,inactive: 9.22%
17,Cc1ccc(C(=O)NNC(=O)c2cccc(Br)c2)cc1,inactive: -6.18%
18,CCn1nccc1NC(=O)c1csc([C@@H]2O[C@H](CO)[C@H](O)[C@H](O)[C@H]2O)n1,inactive: -12.5%
19,O=C(CCNC(=O)c1ccco1)Nc1ccccc1OC(F)F,inactive: 6.61%
20,COc1cccc2cc(C(C)N(CCCN3CCOCC3)C(=S)Nc3ccc(C)cc3)oc12 (stereo not given),inactive: 7.68%
21,O=C(N/N=C/c1cn(-c2ccccc2)nc1-c1ccc2c(c1)OCCO2)c1ccncc1,inactive: 6.01%
22,CCCCNC(=O)C1(C)CCN1C(=O)c1ccc(C)c(F)c1 (stereo not given),inactive: 3.48%
23,COc1ccc(C(=O)NNC(=O)C(=O)Nc2ccc(C)cc2)cc1,inactive: 8.19%
24,CCOC(=O)C1CCN(C(=O)COC(=O)CSc2ccccc2C)CC1,inactive: 11.4%
